Data published in paper PMC9911399, “Two distinct binding modes provide the RNA-binding protein RbFox with extraordinary sequence specificity”.
Positions count from the first letter of the chain named. The list shows a part of the results.

T1: RBFOX1 RRM RbFoxmut (Fox-RRM*) (Homo sapiens, UniProt Q9NWB1 109-208, R118D;E147R;N151S;E152T)
T1 sequence: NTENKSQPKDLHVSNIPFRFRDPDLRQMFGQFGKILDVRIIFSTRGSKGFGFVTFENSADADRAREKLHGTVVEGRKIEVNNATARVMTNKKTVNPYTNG

B1: GGACCAG (DNA:RNA)
RNA: GGGAGACCGGAAUUCAGAUUGUCCGGACCAGUUAAAUCCCGUCGUAGCCACCA
DNA 1: CAATCTGAATTCCGGTCTCCC
DNA 2: TGGTGGCTACGACGGGATT
B2: GCCUUGC (DNA:RNA)
RNA: B1 RNA with G26C, A27C, C28U, C29U, A30G, G31C
DNA 1: CAATCTGAATTCCGGTCTCCC
DNA 2: TGGTGGCTACGACGGGATT
B3: CAAAAUA (DNA:RNA)
RNA: B1 RNA with G25C, G26A, C28A, C29A, A30U, G31A
DNA 1: CAATCTGAATTCCGGTCTCCC
DNA 2: TGGTGGCTACGACGGGATT
B4: AAUGAGA (DNA:RNA)
RNA: GGGAGACCGGAAUUCAGAUUGUCCAAUGAGAUUAAAUCCCGUCGUAGCCACCA
DNA 1: CAATCTGAATTCCGGTCTCCC
DNA 2: TGGTGGCTACGACGGGATT
B5: UAGAGUA (DNA:RNA)
RNA: B4 RNA with A25U, U27G, G28A, A29G, G30U
DNA 1: CAATCTGAATTCCGGTCTCCC
DNA 2: TGGTGGCTACGACGGGATT
B6: GAGCGAU (DNA:RNA)
RNA: B1 RNA with G26A, A27G, C29G, G31U
DNA 1: CAATCTGAATTCCGGTCTCCC
DNA 2: TGGTGGCTACGACGGGATT
B7: UGCUAUG (DNA:RNA)
RNA: B1 RNA with G25U, A27C, C28U, C29A, A30U
DNA 1: CAATCTGAATTCCGGTCTCCC
DNA 2: TGGTGGCTACGACGGGATT
B8: ACGGUGG (DNA:RNA)
RNA: B4 RNA with A26C, U27G, A29U, A31G
DNA 1: CAATCTGAATTCCGGTCTCCC
DNA 2: TGGTGGCTACGACGGGATT
B9: UGCAAGC (DNA:RNA)
RNA: B4 RNA with A25U, A26G, U27C, G28A, A31C
DNA 1: CAATCTGAATTCCGGTCTCCC
DNA 2: TGGTGGCTACGACGGGATT
B10: AGUGUAC (DNA:RNA)
RNA: B4 RNA with A26G, A29U, G30A, A31C
DNA 1: CAATCTGAATTCCGGTCTCCC
DNA 2: TGGTGGCTACGACGGGATT
B11: AUUAUAC (DNA:RNA)
RNA: B4 RNA with A26U, G28A, A29U, G30A, A31C
DNA 1: CAATCTGAATTCCGGTCTCCC
DNA 2: TGGTGGCTACGACGGGATT
B12: AUCGUUG (DNA:RNA)
RNA: B4 RNA with A26U, U27C, A29U, G30U, A31G
DNA 1: CAATCTGAATTCCGGTCTCCC
DNA 2: TGGTGGCTACGACGGGATT
B13: UACACCU (DNA:RNA)
RNA: B4 RNA with A25U, U27C, G28A, A29C, G30C, A31U
DNA 1: CAATCTGAATTCCGGTCTCCC
DNA 2: TGGTGGCTACGACGGGATT
B14: CGAAACG (DNA:RNA)
RNA: B1 RNA with G25C, C28A, C29A, A30C
DNA 1: CAATCTGAATTCCGGTCTCCC
DNA 2: TGGTGGCTACGACGGGATT
B15: GGUUCCU (DNA:RNA)
RNA: B1 RNA with A27U, C28U, A30C, G31U
DNA 1: CAATCTGAATTCCGGTCTCCC
DNA 2: TGGTGGCTACGACGGGATT
B16: UGCAUGU (DNA:RNA)
RNA: B4 RNA with A25U, A26G, U27C, G28A, A29U, A31U
DNA 1: CAATCTGAATTCCGGTCTCCC
DNA 2: TGGTGGCTACGACGGGATT
B17: AGUGCAC (DNA:RNA)
RNA: B4 RNA with A26G, A29C, G30A, A31C
DNA 1: CAATCTGAATTCCGGTCTCCC
DNA 2: TGGTGGCTACGACGGGATT
B18: CUCCAAA (DNA:RNA)
RNA: B4 RNA with A25C, A26U, U27C, G28C, G30A
DNA 1: CAATCTGAATTCCGGTCTCCC
DNA 2: TGGTGGCTACGACGGGATT
B19: CCGCCGG (DNA:RNA)
RNA: B1 RNA with G25C, G26C, A27G, A30G
DNA 1: CAATCTGAATTCCGGTCTCCC
DNA 2: TGGTGGCTACGACGGGATT
B20: CAAUGGA (DNA:RNA)
RNA: B4 RNA with A25C, U27A, G28U, A29G
DNA 1: CAATCTGAATTCCGGTCTCCC
DNA 2: TGGTGGCTACGACGGGATT
B21: AGCUGGU (DNA:RNA)
RNA: B4 RNA with A26G, U27C, G28U, A29G, A31U
DNA 1: CAATCTGAATTCCGGTCTCCC
DNA 2: TGGTGGCTACGACGGGATT
B22: GCUUGUA (DNA:RNA)
RNA: B4 RNA with A25G, A26C, G28U, A29G, G30U
DNA 1: CAATCTGAATTCCGGTCTCCC
DNA 2: TGGTGGCTACGACGGGATT
B23: ACGUAGC (DNA:RNA)
RNA: B4 RNA with A26C, U27G, G28U, A31C
DNA 1: CAATCTGAATTCCGGTCTCCC
DNA 2: TGGTGGCTACGACGGGATT
B24: CGGCUAU (DNA:RNA)
RNA: B1 RNA with G25C, A27G, C29U, G31U
DNA 1: CAATCTGAATTCCGGTCTCCC
DNA 2: TGGTGGCTACGACGGGATT
B25: CAUGCGU (DNA:RNA)
RNA: B4 RNA with A25C, A29C, A31U
DNA 1: CAATCTGAATTCCGGTCTCCC
DNA 2: TGGTGGCTACGACGGGATT
B26: GACCGAU (DNA:RNA)
RNA: B1 RNA with G26A, A27C, C29G, G31U
DNA 1: CAATCTGAATTCCGGTCTCCC
DNA 2: TGGTGGCTACGACGGGATT
B27: UUGGAAU (DNA:RNA)
RNA: B4 RNA with A25U, A26U, U27G, G30A, A31U
DNA 1: CAATCTGAATTCCGGTCTCCC
DNA 2: TGGTGGCTACGACGGGATT
B28: CAGCUCU (DNA:RNA)
RNA: B4 RNA with A25C, U27G, G28C, A29U, G30C, A31U
DNA 1: CAATCTGAATTCCGGTCTCCC
DNA 2: TGGTGGCTACGACGGGATT
B29: AUAAGGA (DNA:RNA)
RNA: B4 RNA with A26U, U27A, G28A, A29G
DNA 1: CAATCTGAATTCCGGTCTCCC
DNA 2: TGGTGGCTACGACGGGATT
B30: UUAUGCG (DNA:RNA)
RNA: B1 RNA with G25U, G26U, C28U, C29G, A30C
DNA 1: CAATCTGAATTCCGGTCTCCC
DNA 2: TGGTGGCTACGACGGGATT
B31: AAGAUCU (DNA:RNA)
RNA: B4 RNA with U27G, G28A, A29U, G30C, A31U
DNA 1: CAATCTGAATTCCGGTCTCCC
DNA 2: TGGTGGCTACGACGGGATT

target: T1, RBFOX1 RRM RbFoxmut (Fox-RRM*); assay: EMSA; HiTS-Eq, 1 nM pool, 10 min; buffer printed only for the single-RNA assays: 10 mM Tris pH 7.5, 150 mM NaCl, 3.4 mM EDTA, 0.001% NP-40, 30 C; conditions: tags: His6 N-terminal (pET28a); label: 5' 32P
Procedure, shortened: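 Relative association constants, normalised to the cognate motif, were derived by comparing read counts of each RNA species with those of the control reaction. The RNA sequenced was the free fraction, separated by 8% native PAGE after a 10 min equilibration in 50 µL of 1 nM 5′-radiolabelled RNA (7 randomized nucleotides) with increasing concentrations of purified wild-type or mutant RbFox RRM.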

First: B1
Second: B2
The binding signal of the first is lower: 0.103 KA relative to UGCAUGU for the first, 0.387 KA relative to UGCAUGU for the second.

First: B3
Second: B4
The binding signal of the first is higher: 0.111 KA relative to UGCAUGU for the first, 0.0825 KA relative to UGCAUGU for the second.

First: B5
Second: B6
The binding signal of the first is higher: 0.131 KA relative to UGCAUGU for the first, 0.0732 KA relative to UGCAUGU for the second.

Compared with B7, B8 is lower in binding signal: 0.863 KA relative to UGCAUGU for the first, 0.133 KA relative to UGCAUGU for the second.

First: B9
Second: B10
The binding signal of the first is lower: 0.0625 KA relative to UGCAUGU for the first, 0.131 KA relative to UGCAUGU for the second.

First: B11
Second: B12
The binding signal of the first is lower: 0.14 KA relative to UGCAUGU for the first, 0.175 KA relative to UGCAUGU for the second.

First: B13
Second: B14
The binding signal of the first is lower: 0.0835 KA relative to UGCAUGU for the first, 0.085 KA relative to UGCAUGU for the second.

Compared with B15, B16 is higher in binding signal: 0.106 KA relative to UGCAUGU for the first, 1 KA relative to UGCAUGU for the second.

First: B17
Second: B18
The binding signal of the first is lower: 0.077 KA relative to UGCAUGU for the first, 0.0937 KA relative to UGCAUGU for the second.

First: B19
Second: B20
The binding signal of the first is higher: 0.0808 KA relative to UGCAUGU for the first, 0.0658 KA relative to UGCAUGU for the second.

First: B21
Second: B22
The binding signal of the first is lower: 0.137 KA relative to UGCAUGU for the first, 0.321 KA relative to UGCAUGU for the second.

First: B23
Second: B24
The binding signal of the first is higher: 0.122 KA relative to UGCAUGU for the first, 0.0735 KA relative to UGCAUGU for the second.

First: B25
Second: B26
The binding signal of the first is higher: 0.143 KA relative to UGCAUGU for the first, 0.0842 KA relative to UGCAUGU for the second.

Compared with B27, B28 is lower in binding signal: 0.135 KA relative to UGCAUGU for the first, 0.0953 KA relative to UGCAUGU for the second.

First: B29
Second: B30
The binding signal of the first is lower: 0.0484 KA relative to UGCAUGU for the first, 0.13 KA relative to UGCAUGU for the second.

In the case of B31, the binding signal is reported as 0.0643 KA relative to UGCAUGU.
